# In article PMC10894229, “Novel antimicrobial peptides against Cutibacterium acnes designed by deep learning” (Scientific Reports, 2024):
# Ends that are not written are not given here.
# Columns and labels:
# [1] = system: E. coli (ATCC 25922); assay type: cell-based; conditions: ATCC 25922, 24 h
# Experimental: (§1) Logarithmic phase growth bacteria were used for antimicrobial testing.
# (§2) All experiments were conducted in triplicate.
# [2] = system: S. aureus (ATCC 25913); assay type: cell-based; conditions: ATCC 25913, 24 h
# Experimental: as §1, §2
# [3] = system: C. albicans (ATCC 14053); assay type: cell-based; conditions: ATCC 14053, 48 h
# Experimental: Strains of C. albicans (ATCC 14053) were grown in Nodule Bacteria Medium YM broth (Beijing Solarbio Science and Technology, LA6970) at 28 °C at 180 rpm under aerobic conditions.
# as §1
# (§3) To determine the MIC values, the broth microdilution method was used. […] Briefly, peptide samples were prepared as a stock solution in water and then diluted. 180 μL of the bacterial suspension (10^7 CFU/mL) and 20 μL of the tested sample were added together into 96-Well Deep Well Plates and incubated 24 h for E. coli and S. aureus or 48 h for C. acnes and C. albicans. For each test, two columns of the plate were kept for sterility control (broth only) and growth control (broth with bacterial inoculums, no antibiotics). The optical density of cultures was measured at 630 nm by a microplate reader (SYNERGY-H1, BioTek, USA) to estimate bacterial growth. All experiments were conducted in triplicate. We used ciprofloxacin (CPFX) as the antibiotic control for antimicrobial testing.
# [4] = system: rabbit red blood cells (rRBCs); test: Hemolytic activity assay; assay type: cell-based; conditions: for Hemolysis EC90: 2 h
# Experimental: The hemolytic activity of peptides was assayed on rabbit red blood cells (rRBCs)[43]. Briefly, 2% rRBCs (150 μL) were incubated in the presence of various peptide concentrations (50 μL) at 37 °C for 2 h. After centrifugation, the supernatants were collected for measuring absorbance at 545 nm. PBS and 0.01% Triton X-100 were used as the negative (no hemolysis) and positive (100% hemolysis) control, respectively. Triplicate tests were performed.
# [5] = system: human keratinocytes (HaCaT); test: HaCaT cell viability, CCK-8 assay; assay type: cell-based; conditions: for Cytotoxic EC90: 24 h
# Experimental: HaCaT (IM-H225) cells from Xiamen Immocell Biotechnology Co., Ltd were cultured in DMEM high glucose medium (4.5 g/L, Gibco, USA), supplemented with 10% fetal bovine serum (Gibco, USA), 100 U/mL of penicillin and 100 μg/mL of streptomycin in a 5% CO2 fully humidified environment at 37 °C.
# Cell Counting Kit-8 (CCK-8; Biosharp, China) was used to assess the rate of cellular proliferation and quantify cell viability. In brief, HaCaT cells were seeded in 96-well plates with 100 μL of medium at a density of 1 × 10^4 cells per well. After incubation of cells overnight, peptides were added into the medium for another 24 h incubation. Then, 10 μL of CCK8 solution was applied to each well and incubated for 1 h at 37 °C. Finally, the absorbance values at 450 nm were determined using a microplate reader (SYNERGY-H1, BioTek, USA). Two columns of the plate were kept for negative control (medium only) and growth control (medium with HaCaT cell). All experiments were conducted in triplicate.
# [6] = system: C. acnes (BNCC 336649); conditions: BNCC 336649, 48 h
# Experimental: The strain of C. acnes (BNCC 336649) was cultured in Wilkins-Chalgren Anaerobe Broth (QingDao RiShui Bio-technologies, 11071) at 37 °C under an anaerobic atmosphere performed by a Labiophy HL-B automatic hypoxic workstation (Dalian, Liaoning Province, Labiophy HL-B), inflated with a gas mix of 15% carbon dioxide, 83% nitrogen, and 2% hydrogen.
# as §1, §3
Compound,MIC E. coli [1],MIC S. aureus [2],MIC C. albicans [3],Hemolysis EC90 [4],Cytotoxic EC90 [5],Hemolysis Index ([4]; ratio of EC90 (rabbit red blood cells) to MIC of C. acnes),Cytotoxic Index ([5]; ratio of EC90 (HaCaT) to MIC of C. acnes),MIC C. acnes [6]
LSKWLKKLGKLLAG [AMP-33],25 µg/mL,50 µg/mL,12.5 µg/mL,80 µg/mL,80 µg/mL,,,
"CC(C)C[C@H](NC(=O)[C@H](Cc1c[nH]c2ccccc12)NC(=O)[C@@H](NC(=O)[C@H](CC(C)C)NC(=O)[C@@H]1CCCN1C(=O)[C@@H](N)Cc1ccccc1)[C@@H](C)O)C(=O)N[C@@H](CCCCN)C(=O)N[C@@H](Cc1c[nH]c2ccccc12)C(=O)N[C@@H](Cc1c[nH]c2ccccc12)C(=O)N[C@@H](CCCCN)C(=O)N[C@@H](Cc1c[nH]c2ccccc12)C(=O)N[C@@H](CCCCN)C(=O)N[C@@H](CCCCN)C(N)=O [FK13, reference compound]",,,,,,16,20,
AKRIVKLIKNFFRKL-NH2 [AMP-25],50 µg/mL,> 100 µg/mL,25 µg/mL,240 µg/mL,80 µg/mL,,,
KKWRKVLKLIKRLVG-NH2 [AMP-12],8 µg/mL,8 µg/mL,25 µg/mL,80 µg/mL,32 µg/mL,,,
HFLGVVAKLVSKLF [AMP-38],8 µg/mL,12.5 µg/mL,50 µg/mL,128 µg/mL,80 µg/mL,,,8 µg/mL
GIFKKITGKLFKWIK [AMP-5],12.5 µg/mL,100 µg/mL,12.5 µg/mL,240 µg/mL,80 µg/mL,,,8 µg/mL
GWAKRLATRLAKAIL-NH2 [AMP-27],100 µg/mL,> 100 µg/mL,50 µg/mL,160 µg/mL,> 320 µg/mL,,,25 µg/mL
KILGKLLKWASKIW [AMP-31],8 µg/mL,8 µg/mL,25 µg/mL,80 µg/mL,32 µg/mL,,,
KRIVHRLLKKLHSLF [AMP-9],25 µg/mL,> 100 µg/mL,25 µg/mL,240 µg/mL,160 µg/mL,,,
KKIFKRIVKIIKRLL [AMP-29],8 µg/mL,8 µg/mL,25 µg/mL,64 µg/mL,32 µg/mL,,,
